# Reference: the supplement of paper PMC4166925
# ± gives the standard deviation of the averaged measurements. The full ranking holds about 33,000 sequences; the median of “E-score (dimensionless, -0.5 to 0.5)” is about -0.049, and the highest 2% start at about 0.37. The list shows a part of the results.
# System: T1, PmTbr T-box DNA-binding domain (GST fusion)
# T1 sequence: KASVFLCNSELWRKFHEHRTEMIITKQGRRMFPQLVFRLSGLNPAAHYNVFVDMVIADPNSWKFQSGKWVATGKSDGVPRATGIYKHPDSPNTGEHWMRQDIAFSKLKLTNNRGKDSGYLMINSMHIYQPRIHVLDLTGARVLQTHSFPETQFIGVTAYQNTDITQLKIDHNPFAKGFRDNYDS
# Assay: PBM E-score of 8-mer (E-score (dimensionless, -0.5 to 0.5)); Tbr is Tbrain of the sea star Patiria miniata (Pm) or the sea urchin Strongylocentrotus purpuratus (Sp); higher = stronger binding preference; most listed sequences are background and not binding sites
# Settings: the construct has about 5 more residues each side
# Method: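 Universal protein-binding microarray (Agilent AMADID 016060, 60-bp probes with a 35-bp variable region) incubated with 200 nM GST-fused Patiria miniata Tbr T-box DNA-binding domain (residues 272-466) in PBS pH 7.5. Scored for every ungapped 8-mer (given with its reverse complement) by the Universal PBM Analysis Suite as E-score (modified Wilcoxon-Mann-Whitney enrichment, range -0.5 to 0.5; >0.45 counts as bound) and Z-score of median probe intensity. Two replicate arrays (datasets 1 and 2).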
# 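Also: 200 nM protein in PBS on universal arrays averaged over duplicate arrays.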
row,Sequence,PBM E-score of 8-mer
1,GAATGGAC,-0.094 ± 0.052
2,CCGTATTA,-0.19 ± 0.055
3,AAATATGC,0.0237 ± 0.036
4,AAATCCCA,0.0132 ± 0.0089
5,CCAACCGC,0.00658 ± 0.07
6,TCCGCCCA,-0.0159 ± 0.029
7,GGTGGCTA,-0.0916 ± 0.029
8,CTTAAATC,-0.187 ± 0.024
9,TCAAGTAA,-0.0858 ± 0.011
10,GCGTTCAA,-0.0538 ± 0.058
11,ATAAGCCG,-0.203 ± 0.05
12,CTCGTTCA,-0.07 ± 0.028
13,CCTAAAAA,-0.0118 ± 0.025
14,TGGCAAAA,0.159 ± 0.09
15,CCAGTTAC,-0.123 ± 0.016
16,ATCCCAGG,-0.24 ± 0.014
17,ACGAAGTG,0.291 ± 0.018
18,ACAATTAT,-0.0222 ± 0.044
19,ATTTGTGG,0.094 ± 0.012
20,ACCAGACT,-0.253 ± 0.038
21,ATCAACTG,-0.0549 ± 0.035
22,ACAGCCTA,0.104 ± 0.047
23,GCCGTTAA,0.0119 ± 0.0044
24,AAGAGGTC,-0.101 ± 0.02
25,CTTTGCAC,0.196 ± 0.0043

row,Sequence,PBM E-score of 8-mer
1,ACATAGCG,-0.0152 ± 0.1
2,GCATCCTA,-0.0162 ± 0.044
3,CAGGAGAC,-0.136 ± 0.017
4,CCCCTATC,-0.173 ± 0.019
5,GAAGAGCC,-0.131 ± 0.032
6,AGTCCGTA,-0.192 ± 0.003
7,ATATAGTG,0.0284 ± 0.13
8,ACCGCACG,0.0344 ± 0.016
9,ACTCGCAC,0.4 ± 0.0077
10,AATGTTCC,-0.191 ± 0.0029
11,CCCGTCGG,0.0757 ± 0.044
12,GTTCACTA,-0.161 ± 0.041
13,CAATTGCG,0.118 ± 0.018
14,GCCCCAAC,0.0939 ± 0.034
15,AGGTCATC,-0.0529 ± 0.04
16,AAAGGTTC,-0.0764 ± 0.11
17,TCAGTGCA,-0.123 ± 0.065
18,CTTGGTCC,-0.24 ± 0.053
19,CACAACAG,0.161 ± 0.033
20,AGAATACG,-0.106 ± 0.028
21,AAGGGAAG,-0.246 ± 0.025
22,CAGCAGGA,-0.188 ± 0.021
23,AACCGGGA,-0.09424 ± 0.00045
24,GAACACAC,0.173 ± 0.061
25,CAATGGTC,-0.185 ± 0.055

row,Sequence,PBM E-score of 8-mer
1,CAAATCCG,-0.00304 ± 0.052
2,AAGGTGTA,0.404 ± 0.026
3,CACTGCCA,0.0889 ± 0.012
4,GCGACTAC,0.131 ± 0.019
5,ACAACTCC,0.116 ± 0.047
6,ACTGGCTG,-0.106 ± 0.12
7,AAAGCATT,-0.0173 ± 0.079
8,CCATGCAA,-0.0385 ± 0.022
9,GGGGGACC,-0.2333 ± 0.002
10,CGATCTAA,-0.173 ± 0.097
11,AACCCAGT,-0.32 ± 0.063
12,AGAAGTTC,-0.0679 ± 0.018
13,CTATACGC,-0.242 ± 0.0075
14,CTGCTTCC,-0.188 ± 0.072
15,AATGCTCC,-0.0523 ± 0.0048
16,CAACCTAG,-0.0267 ± 0.023
17,AGCCTGGG,-0.157 ± 0.086
18,CAGTCCCA,-0.0093 ± 0.065
19,GTCGAAAA,-0.0277 ± 0.09
20,ATAATGGC,-0.07 ± 0.035
21,ATCCGGGG,0.0462 ± 0.1
22,AATTAACA,0.288 ± 0.061
23,TGGCGACA,0.3273 ± 0.0022
24,TAAAACTA,-0.0853 ± 0.14
25,AGCTGTGA,0.404 ± 0.017

row,Sequence,PBM E-score of 8-mer
1,CTTTAGTA,-0.0763 ± 0.042
2,AGAATGAT,-0.0138 ± 0.073
3,AAGTACTC,-0.0949 ± 0.013
4,CAATAGTA,-0.241 ± 0.061
5,GTTCGTAA,-0.121 ± 0.037
6,GTTGTCCA,0.0612 ± 0.017
7,AAATCCAG,-0.0508 ± 0.012
8,ACGCTTAT,0.0287 ± 0.0034
9,GACCAGGC,0.00606 ± 0.035
10,AGAGACAG,-0.132 ± 0.0054
11,AGATTAGC,0.0839 ± 0.03
12,GTGCAGAA,0.0654 ± 0.016
13,ATTTGGAA,-0.171 ± 0.0028
14,TAATTCCA,-0.124 ± 0.0074
15,CTAGGATC,-0.255 ± 0.018
16,ATAGGGTA,0.178 ± 0.015
17,GAGTCCTA,-0.047 ± 0.074
18,AAGGTCAA,-0.15 ± 0.076
19,AACTCCAC,0.0837 ± 0.074
20,GCAGAGCA,-0.203 ± 0.027
21,CTTGCGAC,0.273 ± 0.022
22,CGGCCCCA,0.126 ± 0.013
23,ATCGAGCC,-0.0159 ± 0.045
24,GCTTAACA,0.168 ± 0.087
25,TGAAGGCA,-0.12 ± 0.017

row,Sequence,PBM E-score of 8-mer
1,CATGCATA,-0.21 ± 0.03
2,TCGGTGCA,-0.0952 ± 0.063
3,CTCACATA,0.0666 ± 0.017
4,TAGTGGAA,0.0336 ± 0.013
5,CGGCGATC,-0.182 ± 0.025
6,CCGGCAGA,-0.232 ± 0.11
7,GCGCCGGA,0.0121 ± 0.084
8,AACTGGCG,0.109 ± 0.016
9,CTACCTAG,-0.0434 ± 0.12
10,AAGGTAAT,-0.0882 ± 0.11
11,CGAGGGAC,-0.049 ± 0.072
12,GATGTCGA,0.0908 ± 0.011
13,CTAAGCCC,-0.178 ± 0.085
14,TAGGAGCA,0.00877 ± 0.042
15,AATATTTC,0.0525 ± 0.095
16,AGTTTGCG,0.033 ± 0.027
17,CGATCGTA,0.00258 ± 0.013
18,CTGCCCTA,-0.169 ± 0.058
19,AAGAATGG,-0.118 ± 0.026
20,ATACTCCA,-0.0589 ± 0.05
21,CCCGGTTA,-0.191 ± 0.012
22,ACCCTGTG,0.178 ± 0.052
23,GCAGCCAC,0.114 ± 0.061
24,CGAACTCA,0.0995 ± 0.042
25,CAATCTCA,0.144 ± 0.017

row,Sequence,PBM E-score of 8-mer
1,AAACCAGT,-0.184 ± 0.067
2,CGGCCGCA,-0.0169 ± 0.07
3,GCGGTTCC,-0.153 ± 0.0068
4,AAACGCGT,0.164 ± 0.047
5,AACTCCAT,0.00349 ± 0.036
6,GTGATTAA,0.215 ± 0.041
7,GATTCTAC,-0.217 ± 0.02
8,ACGGAATC,0.0455 ± 0.0028
9,AAAAGTCG,0.119 ± 0.022
10,GCACGACA,0.0657 ± 0.0079
11,TCGAGAGA,-0.0175 ± 0.015
12,AATTGACG,0.223 ± 0.006
13,CGGATACA,-0.28 ± 0.069
14,CCTTAACC,-0.123 ± 0.006
15,CCAGAGCA,-0.278 ± 0.039
16,ACGATTAC,-0.00917 ± 0.0029
17,GATTAGGC,-0.0984 ± 0.022
18,CATGGCCA,-0.139 ± 0.039
19,CAGTACCA,-0.0345 ± 0.056
20,AGATCCTG,-0.272 ± 0.038
21,GTTACGCA,-0.192 ± 0.046
22,CCGCATCA,-0.0225 ± 0.028
23,CAGTGGAA,-0.163 ± 0.026
24,ATGACACA,0.314 ± 0.0075
25,CTTCCTCA,0.121 ± 0.021

row,Sequence,PBM E-score of 8-mer
1,AATTGATA,0.185 ± 0.018
2,CCCCTCTC,-0.182 ± 0.028
3,ATGATCGC,0.0765 ± 0.017
4,AGCGGGAA,0.0926 ± 0.0051
5,ATTCGTAA,-0.0658 ± 0.076
6,ATCATGTA,-0.108 ± 0.14
7,GATACCGC,-0.00527 ± 0.061
8,CGAGACCA,-0.0217 ± 0.093
9,CGTCACAA,0.175 ± 0.033
10,CAGTTAGA,-0.168 ± 0.025
11,AAGAACTC,-0.14 ± 0.017
12,GCCTGAGA,-0.00076 ± 0.052
13,ATGTCATG,-0.158 ± 0.058
14,GCAAGCAC,0.132 ± 0.011
15,TATACACA,0.0604 ± 0.029
16,TCCTATCA,0.0238 ± 0.1
17,ATTCTATA,-0.236 ± 0.028
18,ATACGCTG,-0.105 ± 0.013
19,CTAAGGTC,-0.13986 ± 1.4e-05
20,GGACGAGA,-0.0167 ± 0.022
21,CATGGGCG,0.0259 ± 0.0044
22,CTACAAGC,0.0404 ± 0.0068
